Measurements reported in the supplement of paper PMC6089552.
The whole screen tested about 3,200 compounds, of which about 300 (9.4%) showed activity. The list shows a part of the results, in another mix than the full data.

Test system: A673/TR/shEF
Experiment: cell viability (LOESS-normalised, relative to median of negative controls) (log2 ratio); higher = more viable cells (less compound effect), active = hit call of the paper (over 3 MAD below the median)
Conditions: treatment time: 72 h
How it was run: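 A673/TR/shEF Ewing sarcoma cells (1,500 per well, 384-well plates) were grown with or without doxycycline to induce EWS-FLI1 shRNA knockdown, starting 24 h before compounds. Library compounds at two or more concentrations, with DMSO controls, were added for three days. Cell viability was read by CellTiter-Glo luminescence on an Envision reader, then LOESS-corrected per plate, divided by the median of negative controls and log2-transformed. Hits were wells at least three median absolute deviations from the median of all screened wells.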

[1] = 0.25 µM, library screen: screen1, EWS-FLI1 expression: high (no doxycycline)
[2] = 0.25 µM, library screen: screen1, EWS-FLI1 expression: low (doxycycline-induced shRNA knockdown)
[3] = 0.25 µM, library screen: screen2, EWS-FLI1 expression: high (no doxycycline)
[4] = 0.25 µM, library screen: screen2, EWS-FLI1 expression: low (doxycycline-induced shRNA knockdown)
[5] = 2.5 µM, library screen: screen1, EWS-FLI1 expression: high (no doxycycline)
[6] = 2.5 µM, library screen: screen1, EWS-FLI1 expression: low (doxycycline-induced shRNA knockdown)
[7] = 2.5 µM, library screen: screen2, EWS-FLI1 expression: high (no doxycycline)
[8] = 2.5 µM, library screen: screen2, EWS-FLI1 expression: low (doxycycline-induced shRNA knockdown)
[9] = 0.103 µM, library screen: screen3, EWS-FLI1 expression: high (no doxycycline)
[10] = 0.103 µM, library screen: screen3, EWS-FLI1 expression: low (doxycycline-induced shRNA knockdown)
[11] = 0.308 µM, library screen: screen3, EWS-FLI1 expression: high (no doxycycline)
[12] = 0.308 µM, library screen: screen3, EWS-FLI1 expression: low (doxycycline-induced shRNA knockdown)
[13] = 0.926 µM, library screen: screen3, EWS-FLI1 expression: high (no doxycycline)
[14] = 0.926 µM, library screen: screen3, EWS-FLI1 expression: low (doxycycline-induced shRNA knockdown)
[15] = 2.8 µM, library screen: screen3, EWS-FLI1 expression: high (no doxycycline)
[16] = 2.8 µM, library screen: screen3, EWS-FLI1 expression: low (doxycycline-induced shRNA knockdown)
[17] = 8.3 µM, library screen: screen3, EWS-FLI1 expression: high (no doxycycline)
[18] = 8.3 µM, library screen: screen3, EWS-FLI1 expression: low (doxycycline-induced shRNA knockdown)
[19] = 25 µM, library screen: screen3, EWS-FLI1 expression: high (no doxycycline)
[20] = 25 µM, library screen: screen3, EWS-FLI1 expression: low (doxycycline-induced shRNA knockdown)

Measured: cell viability (log2)

NCCCCN=C(N)N
inactive: [1] 0.0737 | [2] 0.063 | [3] 0.129 | [4] 0.0682 | [5] 0.15 | [6] 0.102 | [7] 0.175 | [8] 0.0262

CC(=O)Oc1ccccc1C(=O)O
inactive: [1] 0.0864 | [2] 0.103 | [3] -0.0224 | [4] 0.0553 | [5] 0.132 | [6] 0.124 | [7] 0.0414 | [8] 0.116

Cc1cc(=O)oc2cc(O)cc(O)c12
inactive: [1] 0.0986 | [2] 0.00891 | [5] 0.0982 | [6] 0.0904

O=C(O)[C@H]1NCCC[C@H]1C(=O)O
inactive: [3] 0.154 | [4] 0.0929 | [7] 0.154 | [8] 0.154

CC1=C(/C=C/C(C)=C/C=C/C(C)=C/C=C/C=C(C)/C=C/C=C(C)/C=C/C2=C(C)C(=O)[C@@H](O)CC2(C)C)C(C)(C)C[C@H](O)C1=O
inactive: [1] 0.129 | [2] 0.0523 | [3] -0.0189 | [4] 0.103 | [5] 0.147 | [6] 0.0156 | [7] 0.118 | [8] 0.123

COc1ccc2ccc(=O)oc2c1CC=C(C)C
inactive: [1] 0.0683 | [2] 0.00958 | [5] 0.0951 | [6] -0.0614

CC1(C)S[C@@H]2[C@H](NC(=O)[C@@H](NC(=O)N3CCNC3=O)c3ccccc3)C(=O)N2[C@H]1C(=O)O
inactive: [1] 0.122 | [2] 0.108 | [5] 0.0998 | [6] 0.128

COc1cc2c3cc1Oc1cc(ccc1O)C[C@@H]1c4c(cc(OC)c(O)c4Oc4ccc(cc4)C[C@@H]3N(C)CC2)CC[N+]1(C)C
inactive: [1] 0.0971 | [2] 0.0329 | [5] 0.0723 | [6] -0.0241

CC(=O)O[C@@H]1c2c(ccc3ccc(=O)oc23)OC(C)(C)[C@@H]1OC(=O)CC(C)C
inactive: [1] 0.0407 | [2] -0.0116 | [5] 0.121 | [6] 0.0173

CN1CCc2cc(Cl)c(O)cc2[C@@H](c2ccccc2)C1
inactive: [3] 0.102 | [4] 0.0596 | [7] 0.0549 | [8] 0.0194

Nc1ccc(N2C(=O)c3ccccc3C2=O)c(Cl)c1
inactive: [3] 0.208 | [4] 0.214 | [7] 0.0437 | [8] 0.148

CC1=C(C(=O)O)N2C(=O)[C@@H](NC(=O)[C@H](N)C3=CCC=CC3)[C@H]2SC1
inactive: [3] 0.206 | [4] 0.131 | [7] 0.143 | [8] 0.0524

N[C@@H](CCC(=O)N[C@@H](CS)C(=O)NCC(=O)O)C(=O)O
inactive: [1] 0.0494 | [2] 0.0411 | [5] 0.104 | [6] 0.0896

Cc1cc(Cl)ccc1OCC(O)CN1CCN(C)CC1 (centres undefined)
inactive: [1] 0.0377 | [2] 0.029 | [5] 0.0948 | [6] 0.184

NCCCCCCNS(=O)(=O)c1cccc2c(Cl)cccc12
inactive: [1] 0.066 | [2] 0.0556 | [3] 0.156 | [4] 0.0625 | [5] 0.0432 | [6] 0.0443 | [7] 0.141 | [8] 0.102

C[C@]12CC[C@@H]3c4ccc(O)cc4CC[C@H]3[C@@H]1CC[C@@H]2O
inactive: [9] 0.029 | [10] -0.00908 | [1] 0.122 | [2] 0.00576 | [3] 0.147 | [4] 0.0497 | [11] 0.101 | [12] 0.0915 | [13] 0.111 | [14] 0.0539 | [5] 0.0979 | [6] 0.0174 | [7] 0.0738 | [8] 0.0113 | [15] 0.127 | [16] 0.0786 | [17] 0.135 | [18] 0.0545 | [19] 0.166 | [20] 0.0719

CCCN(CCC)S(=O)(=O)c1ccc(C(=O)O)cc1
inactive: [1] 0.0518 | [2] 0.0728 | [5] 0.139 | [6] 0.185

OC[C@@H](O)C(O)[C@@H](O)CO (some centres undefined)
inactive: [1] 0.0295 | [2] -0.0327 | [5] 0.0906 | [6] 0.0422

CC(=O)[C@H]1CC[C@H]2[C@@H]3CCC4=CC(=O)CC[C@]4(C)[C@H]3CC[C@]12C
inactive: [9] 0.161 | [10] 0.011 | [1] 0.0842 | [2] 0.142 | [3] 0.133 | [4] 0.044 | [11] 0.16 | [12] 0.0729 | [13] 0.13 | [14] 0.0926 | [5] 0.103 | [6] 0.115 | [7] 0.0285 | [8] 0.0654 | [15] 0.163 | [16] 0.0887 | [17] 0.106 | [18] 0.113 | [19] 0.0847 | [20] 0.0844
